Assay results: PubChem BioAssay (NCI)
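Compound exposure: 48 hours, 5 concentrations, 96-well plates. Here, GI50 denotes the concentration required for 50% inhibition of growth.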 Not every entry of the source has a single result; some have several. This list holds those alone. There may be further records. For some assays here: The tests behind the records often covered other concentration ranges, not given here; a value can be the end of its range. For some assays here: The values listed for one entry are repeats across runs, samples, wells, individuals or studies. Records carry a tag for their origin. Letters count within one entry.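 TGI denotes the concentration required for complete inhibition of growth.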

Experiments:
Experiment in all cases: DTP human tumour cell line panel, 48 h
CCRF-CEM leukemia = test system: CCRF-CEM leukemia
DU-145 prostate = test system: DU-145 prostate
LOX IMVI melanoma = test system: LOX IMVI melanoma
A498 renal = test system: A498 renal
HCC-2998 colon = test system: HCC-2998 colon
HL-60(TB) leukemia = test system: HL-60(TB) leukemia
MALME-3M melanoma = test system: MALME-3M melanoma
MCF7 breast = test system: MCF7 breast
NCI-H23 lung = test system: NCI-H23 lung
NCI-H460 lung = test system: NCI-H460 lung
OVCAR-8 ovarian = test system: OVCAR-8 ovarian
SF-539 CNS = test system: SF-539 CNS
ACHN renal = test system: ACHN renal
M14 melanoma = test system: M14 melanoma
MOLT-4 leukemia = test system: MOLT-4 leukemia
NCI/ADR-RES ovarian = test system: NCI/ADR-RES ovarian
OVCAR-4 ovarian = test system: OVCAR-4 ovarian
PC-3 prostate = test system: PC-3 prostate
SR leukemia = test system: SR leukemia

C1CN1c1nc(N2CC2)nc(N2CC2)n1
TGI (CCRF-CEM leukemia): 51.2 µM and 900 nM | TGI (DU-145 prostate): 61.5 µM and 3.55 µM

CN1CCN(CCn2c3c4ccccc4ccc3c3oc(=O)c4ccccc4c32)CC1
TGI (LOX IMVI melanoma): 2.99 µM and > 100 µM

C[C@@]1(CO)[C@H](O)CC[C@@]2(C)[C@H]1CC[C@H]1C[C@@H]3C[C@@]12CC[C@@]3(O)COC(=O)CN
TGI (A498 renal): > 500 µM [1 test] and 42.4 µM [mean of 5 tests] and 141 µM [mean of 6 tests] | TGI (CCRF-CEM leukemia): 44.2 µM, > 500 µM, > 277 µM | TGI (HCC-2998 colon): 41.7 µM, > 500 µM, 202 µM | TGI (HL-60(TB) leukemia): 16.1 µM, > 500 µM, 41.9 µM | TGI (LOX IMVI melanoma): 28.4 µM, > 500 µM, 160 µM | GI50 (MALME-3M melanoma): > 500 µM [1 test] and 31.6 µM, 43.7 µM [mean of 7 tests] | TGI (MCF7 breast): > 500 µM [1 test] and 44.4 µM [mean of 5 tests] and 192 µM [mean of 6 tests] | GI50 (NCI-H23 lung): > 500 µM [1 test] and 5.53 µM [mean of 6 tests] | TGI (NCI-H23 lung): 31.1 µM, > 500 µM, 117 µM | TGI (NCI-H460 lung): > 500 µM [1 test] and 23.7 µM [mean of 6 tests] and 114 µM [mean of 7 tests] | TGI (OVCAR-8 ovarian): > 500 µM [1 test] and 26.8 µM, 122 µM [mean of 7 tests] | TGI (SF-539 CNS): > 500 µM [1 test] and 60.4 µM, 24.8 µM [mean of 7 tests]

CN(C)c1ccc2nc3ccc(N)cc3[n+](-c3ccccc3)c2c1
GI50 (ACHN renal): 12.3 µM [sample A, mean of 2 tests] and 404 nM [sample B, 1 test] | GI50 (M14 melanoma): 5.23 µM [sample A, mean of 2 tests] and 420 nM [sample B, 1 test] | TGI (M14 melanoma): 19.6 µM [sample A, mean of 2 tests] and 1.42 µM [sample B, 1 test] | TGI (MOLT-4 leukemia): > 100 µM [sample A, 1 test] and 5.94 µM [sample B, 1 test] | GI50 (NCI/ADR-RES ovarian): > 100 µM [sample A, mean of 2 tests] and 1.02 µM [sample B, 1 test] | TGI (OVCAR-4 ovarian): > 100 µM [sample A, 1 test] and 1.88 µM [sample B, 1 test] | GI50 (PC-3 prostate): 2.95 µM [sample A, mean of 2 tests] and 127 nM [sample B, 1 test] | TGI (SR leukemia): > 100 µM [sample A, 1 test] and 8.88 µM [sample B, 1 test]
